Assay results reported in the supplement of paper PMC8728848.
This is one part of the list.

Tests used:
Assay in all cases: glycan array binding signal (z-score within array); higher = stronger binding
Details in all cases: glycan notation: IUPAC condensed, linker removed
[1] = molecular target: Neu5Ac(a2-3)Gal(b1-4)[Fuc(a1-3)]GlcNAc(b1-3)Gal(b1-4)[Fuc(a1-3)]GlcNAc(b1-3)Gal(b1-4)[Fuc(a1-3)]GlcNAc
Outline: (§1)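 The binding signal is a Z-score computed within each array. Data were drawn from 3228 arrays in the Consortium for Functional Glycomics database, restricted to those with a known protein sequence. Scores were averaged over arrays of the same protein sequence at different concentrations or buffers, and over linkers, and negative values can be taken as non-binding.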

[2] = molecular target: Neu5Ac(a2-3)Gal(b1-4)[Fuc(a1-3)]GlcNAc6S
Outline: as §1

[3] = molecular target: Neu5Ac(a2-3)Gal6S(b1-4)GlcNAc
Outline: as §1

[4] = molecular target: Neu5Ac(a2-3)Gal6S(b1-4)[Fuc(a1-3)]GlcNAc
Outline: as §1

Neu5Ac(a2-3)GalNAc = molecular target: Neu5Ac(a2-3)GalNAc
Outline: as §1

[5] = molecular target: Neu5Ac(a2-3)GalNAc(b1-4)GlcNAc
Outline: as §1

[6] = molecular target: Neu5Ac(a2-3)[GalNAc(b1-4)]Gal(b1-4)Glc
Outline: as §1

[7] = molecular target: Neu5Ac(a2-3)[GalNAc(b1-4)]Gal(b1-4)GlcNAc
Outline: as §1

[8] = molecular target: Neu5Ac(a2-3)[Neu5Ac(a2-6)]GalNAc
Outline: as §1

Neu5Ac(a2-6)Gal = molecular target: Neu5Ac(a2-6)Gal
Outline: as §1

Neu5Ac(a2-6)Gal(b1-4)Glc = molecular target: Neu5Ac(a2-6)Gal(b1-4)Glc
Outline: as §1

[9] = molecular target: Neu5Ac(a2-6)Gal(b1-4)GlcNAc
Outline: as §1

[10] = molecular target: Neu5Ac(a2-6)Gal(b1-4)GlcNAc(b1-3)Gal(b1-4)GlcNAc
Outline: as §1

[11] = molecular target: Neu5Ac(a2-6)Gal(b1-4)GlcNAc(b1-3)Gal(b1-4)[Fuc(a1-3)]GlcNAc(b1-3)Gal(b1-4)[Fuc(a1-3)]GlcNAc
Outline: as §1

[12] = molecular target: Neu5Ac(a2-6)Gal(b1-4)GlcNAc6S
Outline: as §1

Neu5Ac(a2-6)GalNAc = molecular target: Neu5Ac(a2-6)GalNAc
Outline: as §1

[13] = molecular target: Neu5Ac(a2-6)GalNAc(b1-4)GlcNAc
Outline: as §1

Neu5Ac(a2-8)Neu5Ac = molecular target: Neu5Ac(a2-8)Neu5Ac
Outline: as §1

[14] = molecular target: Neu5Ac(a2-8)Neu5Ac(a2-3)Gal(b1-4)Glc
Outline: as §1

[15] = molecular target: Neu5Ac(a2-8)Neu5Ac(a2-3)[GalNAc(b1-4)]Gal(b1-4)Glc
Outline: as §1

[16] = molecular target: Neu5Ac(a2-8)Neu5Ac(a2-8)Neu5Ac
Outline: as §1

[17] = molecular target: Neu5Ac(a2-8)Neu5Ac(a2-8)Neu5Ac(a2-3)Gal(b1-4)Glc
Outline: as §1

[18] = molecular target: Neu5Ac(a2-8)Neu5Ac(a2-8)Neu5Ac(a2-3)[GalNAc(b1-4)]Gal(b1-4)Glc
Outline: as §1

[19] = molecular target: Neu5Ac(a2-8)Neu5Ac(a2-8)Neu5Ac(a2-8)Neu5Ac(a2-3)[GalNAc(b1-4)]Gal(b1-4)Glc
Outline: as §1

Neu5Ac(b1-6)GalNAc = molecular target: Neu5Ac(b1-6)GalNAc
Outline: as §1

[20] = molecular target: Neu5Ac(b2-6)Gal(b1-4)GlcNAc
Outline: as §1

[21] = molecular target: Neu5Ac9Ac(a2-6)Gal(b1-4)GlcNAc
Outline: as §1

[22] = molecular target: Neu5Gc(a2-3)Gal(b1-3)GlcNAc
Outline: as §1

[23] = molecular target: Neu5Gc(a2-3)Gal(b1-3)[Fuc(a1-4)]GlcNAc
Outline: as §1

Neu5Gc(a2-3)Gal(b1-4)Glc = molecular target: Neu5Gc(a2-3)Gal(b1-4)Glc
Outline: as §1

[24] = molecular target: Neu5Gc(a2-3)Gal(b1-4)GlcNAc
Outline: as §1

[25] = molecular target: Neu5Gc(a2-3)Gal(b1-4)[Fuc(a1-3)]GlcNAc
Outline: as §1

[26] = molecular target: Neu5Gc(a2-6)Gal(b1-4)GlcNAc
Outline: as §1

Neu5Gc(a2-6)GalNAc = molecular target: Neu5Gc(a2-6)GalNAc
Outline: as §1

B1: F17eG (Escherichia coli), Q9RH92 (protein)
chain: MTNFYKVFLAVFILVCCNISHAAVSFIGSTENDVGPSQSSYSRTHAMDNLPFVYNTGYNIGYQNANVWRISGGFCVGLDGKVDLPVVGSLDGQSIYGLTEEVGLLIWMGDTNYSRGTAMSGNSWENVFSGWCVGNYVSTQGLSVHVRPVILKRNSSAQYSVQKTSIGSIRMRPYNGSSAGSVQTTVNFSLNPFTLNDTVTSCRLLTPSAVNVSLAAISAGQLPSSGDEVVAGTTSLKLQCDAGVTVWATLTDATTPSNRSDILTLTGASTATGVGLRIYKNTDSTPLKFGPDSPVKGNENQWQLSTGTETSPSVRLYVKYVNTGEGINPGTVNGISTFTFSYQ
[1]
  glycan array binding signal (z-score): -0.297
[2]
  glycan array binding signal (z-score): -0.313
[3]
  glycan array binding signal (z-score): -0.312
[4]
  glycan array binding signal (z-score): -0.085
Neu5Ac(a2-3)GalNAc
  glycan array binding signal (z-score): -0.318
[5]
  glycan array binding signal (z-score): -0.311
[6]
  glycan array binding signal (z-score): -0.298
[7]
  glycan array binding signal (z-score): -0.306
[8]
  glycan array binding signal (z-score): -0.208
Neu5Ac(a2-6)Gal
  glycan array binding signal (z-score): -0.314
Neu5Ac(a2-6)Gal(b1-4)Glc
  glycan array binding signal (z-score): -0.308
[9]
  glycan array binding signal (z-score): -0.197
[10]
  glycan array binding signal (z-score): -0.305
[11]
  glycan array binding signal (z-score): -0.299
[12]
  glycan array binding signal (z-score): -0.307
Neu5Ac(a2-6)GalNAc
  glycan array binding signal (z-score): -0.31
[13]
  glycan array binding signal (z-score): -0.212
Neu5Ac(a2-8)Neu5Ac
  glycan array binding signal (z-score): -0.32
[14]
  glycan array binding signal (z-score): -0.287
[15]
  glycan array binding signal (z-score): -0.321
[16]
  glycan array binding signal (z-score): -0.317
[17]
  glycan array binding signal (z-score): -0.318
[18]
  glycan array binding signal (z-score): -0.278
[19]
  glycan array binding signal (z-score): -0.31
Neu5Ac(b1-6)GalNAc
  glycan array binding signal (z-score): -0.287
[20]
  glycan array binding signal (z-score): -0.318
[21]
  glycan array binding signal (z-score): -0.302
[22]
  glycan array binding signal (z-score): -0.31
[23]
  glycan array binding signal (z-score): -0.286
Neu5Gc(a2-3)Gal(b1-4)Glc
  glycan array binding signal (z-score): -0.299
[24]
  glycan array binding signal (z-score): -0.293
[25]
  glycan array binding signal (z-score): -0.31
[26]
  glycan array binding signal (z-score): -0.16
Neu5Gc(a2-6)GalNAc
  glycan array binding signal (z-score): -0.309
